Test results taken from a compilation of properties of binary mixtures (doi:10.1016/j.molliq.2016.01.085).
The densities may have been worked out from excess volumes.

Assay: xn = mol fraction of the nth substance listed
Settings: 101 kPa

CCCC[n+]1ccn(C)c1.F[P-](F)(F)(F)(F)F + CCCOCCO
x2 = 0
Settings | mass density [kg/m3]
298.15 K | 1367.2
308.15 K | 1358.7
323.15 K | 1346

CCCOCCO + CCCC[n+]1ccn(C)c1.F[P-](F)(F)(F)(F)F
mass density [kg/m3]
Settings | x1 = 0.1468 | x1 = 0.1945 | x1 = 0.3063 | x1 = 0.3953 | x1 = 0.5119 | x1 = 0.6168 | x1 = 0.702 | x1 = 0.8043 | x1 = 0.8873 | x1 = 1
298.15 K | 1328.7 | 1315 | 1279.9 | – | 1202.8 | 1155.3 | – | 1051.5 | 995.5 | –
303.15 K | 1324.5 | 1310.7 | – | 1244.5 | 1198.5 | 1151 | 1107.3 | – | 991.1 | 902.7
308.15 K | 1320.2 | – | 1271.3 | 1240.2 | 1194.2 | 1146.7 | 1102.9 | – | 986.7 | 898.3
313.15 K | 1316 | 1302.2 | 1267.1 | 1235.9 | 1189.9 | 1142.3 | – | 1038.4 | 982.3 | 893.9
318.15 K | 1311.7 | 1297.9 | 1262.8 | 1231.6 | – | – | 1094.2 | 1034 | 977.9 | 889.5
323.15 K | – | 1293.6 | 1258.5 | 1227.2 | 1181.2 | – | 1089.8 | 1029.6 | 973.4 | 885
